{"source": "PubChem BioAssay AID1460", "about": "(National Center for Advancing Translational Sciences (NCATS), 2008)", "note": "Out of some 270,000 compounds screened, about 5,800 (2.1%) were called active. Inconclusive means that the source gave no clear call. Such entries were picked first, then a sample of the others. Calls follow the shape of the dose curve; as a rule, active = well fitted inhibition curve with a large enough effect; inconclusive = small, poorly fitted or top-dose-only effect; inactive = flat fitted curve, though single readings scatter. Potencies of inconclusive entries are doubtful fits and often do not repeat. % is scaled to controls: 0 for no effect and ±100 for the full control effect; potency is read from the fitted curve at half-maximal effect; tags tell the direction and shape of the fitted curve."}
{"molecular_target": "Microtubule-associated protein tau (Homo sapiens) (UniProt P10636)", "sequence (P10636 whole entry, looked up)": "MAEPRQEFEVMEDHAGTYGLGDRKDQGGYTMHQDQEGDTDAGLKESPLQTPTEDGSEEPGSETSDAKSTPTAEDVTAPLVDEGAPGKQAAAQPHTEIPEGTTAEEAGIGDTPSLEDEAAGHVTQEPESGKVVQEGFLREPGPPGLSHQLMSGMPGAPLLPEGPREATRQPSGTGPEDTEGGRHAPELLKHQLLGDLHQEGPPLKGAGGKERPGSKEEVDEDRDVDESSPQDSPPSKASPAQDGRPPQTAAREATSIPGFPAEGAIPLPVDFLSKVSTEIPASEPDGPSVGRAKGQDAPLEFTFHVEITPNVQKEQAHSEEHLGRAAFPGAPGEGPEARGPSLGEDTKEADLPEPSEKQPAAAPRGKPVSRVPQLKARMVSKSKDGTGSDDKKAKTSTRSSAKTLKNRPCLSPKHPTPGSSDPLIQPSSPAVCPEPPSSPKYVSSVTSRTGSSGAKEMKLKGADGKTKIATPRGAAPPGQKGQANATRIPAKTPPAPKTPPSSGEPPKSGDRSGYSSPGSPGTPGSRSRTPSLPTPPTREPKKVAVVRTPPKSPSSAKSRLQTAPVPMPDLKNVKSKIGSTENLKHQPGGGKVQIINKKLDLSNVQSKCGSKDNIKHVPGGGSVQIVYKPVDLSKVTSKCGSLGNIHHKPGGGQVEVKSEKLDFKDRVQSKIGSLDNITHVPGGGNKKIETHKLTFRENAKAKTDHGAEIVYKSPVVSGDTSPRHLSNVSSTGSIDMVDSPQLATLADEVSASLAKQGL", "assay": "qHTS for Inhibitors of Tau Fibril Formation, Thioflavin T Binding; also: nearly all actives have a fitted effect of over 55% in size", "details": "recombinant tau K18 P301L, heparin-induced fibrillization, ThT fluorescence; series mostly up to 57.4 µM; activity, negative = inhibition: at the top concentration", "summary_of_the_method": "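Using a mix of unlabeled (15 uM) and Alexa 594-labeled (0.24 uM) tau K18 P301L, heparin-triggered fibrillization over 6 hr at 37 C was scored by ThT fluorescence.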"}
{"smiles": "CCN1CCc2c(OCc3ccc(C(=O)OC)o3)cccc2C1=O", "Potency": "inconclusive: 15.8 µM [inhibitor, single point]"}
{"smiles": "Cc1ccc(-n2[nH]c(C)c(/C=N/c3ccccn3)c2=O)cc1", "activity, negative = inhibition": "inactive: -15%"}
{"smiles": "COC(=O)c1c(-c2ccc(C)cc2)csc1NC(=O)Cc1ccc(OC)c(OC)c1", "Potency": "inconclusive: 20 µM [inhibitor, single point]"}
{"smiles": "COc1ccc(/C=C2/C(=O)N(c3nc4ccccc4s3)N=C2CSc2ccc(Cl)cc2)cc1", "Potency": "inconclusive: 7.94 µM [inhibitor, partial curve]"}
{"smiles": "CCOC(=O)N1CCC(NC(=O)c2ccc3c(c2)N(Cc2ccccc2C)C(=O)c2ccccc2S3=O)CC1", "note": "(stereo unspecified)", "activity, negative = inhibition": "inactive: -10.9%"}
{"smiles": "COc1ccc(/C=C/C(=O)c2c(O)ccc3c(C)cc(=O)oc23)cc1", "Potency": "inconclusive: 12.6 µM [inhibitor, partial curve]"}
{"smiles": "Cc1ccc(N2C(=O)CS(=O)(=O)C23C(=O)Nc2ccccc23)cc1C", "note": "(stereo unspecified)", "activity, negative = inhibition": "inactive: -1.58%"}
{"smiles": "O=C(NC(=S)Nc1ccc(Oc2ccc(Cl)cc2)cc1)c1ccccc1", "activity, negative = inhibition": "inactive: -15.3%"}
{"smiles": "O=C(Nc1ccccc1C(F)(F)F)N1CCOc2ccc(Cl)cc21", "activity, negative = inhibition": "inactive: -4.76%"}
{"smiles": "CCOC(=O)c1cc(Sc2ccccc2N)cc(C(=O)OCC)n1", "activity, negative = inhibition": "inactive: -0.497%"}
{"smiles": "COC(=O)c1ccc(NC(=O)C(=O)N2CCN(C(=S)Nc3cccc(OC)c3)CC2)cc1", "Potency": "inconclusive: 7.94 µM [inhibitor, partial curve]"}
{"smiles": "COc1cc(/C=C2/C(=N)N3C=CSC3=NC2=O)ccc1OCCCOc1c(C)cccc1C", "Potency": "inconclusive: 10 µM [inhibitor, partial curve]"}
{"smiles": "CCC(/C=C1\\Sc2ccc(OC)cc2N1CC)=C\\c1sc2ccc(OC)cc2[n+]1CCCS(=O)(=O)[O-]", "Potency": "active: 3.55 µM"}
{"smiles": "O=[N+]([O-])c1ccc(/C=C/c2ccncc2)cc1", "Potency": "inconclusive: 4.47 µM [inhibitor, partial curve]"}
{"smiles": "CCCn1c(C)nc2c(NCC3CCCN3CC)nc(C)nc21", "note": "(stereo unspecified)", "activity, negative = inhibition": "inactive: -2.02%"}
{"smiles": "Cc1nn(CCc2nc(-c3ccco3)cs2)c2[nH]c(=O)cc(C(F)(F)F)c12", "Potency": "active: 25.1 µM"}
{"smiles": "COc1ccccc1NC(=O)N1CCN(c2ccc3nnc(-c4ccc(F)cc4)n3n2)CC1", "Potency": "inconclusive: 44.7 µM [inhibitor, single point]"}
{"smiles": "Cc1nnc(SCC(=O)NCc2ccco2)[nH]c1=O", "Potency": "inconclusive: 25.1 µM [inhibitor, single point]"}
{"smiles": "CC(C)C(=O)Nc1nnc(S(=O)(=O)N2CCc3ccccc32)s1", "Potency": "inconclusive: 2.24 µM [inhibitor, full curve]"}
{"smiles": "O=C(CSc1nc(O)c(-c2ccccc2)c(=O)[nH]1)N1CCOCC1", "Potency": "inconclusive: 17.8 µM [inhibitor, single point]"}
{"smiles": "O=C(CNc1cccc2ccccc12)N/N=C/c1ccc(C(=O)O)cc1", "Potency": "inconclusive: 17.8 µM [inhibitor, partial curve]"}
{"smiles": "Cc1cc(N(CCO)CCO)ccc1N=Nc1cc(F)ccc1F", "Potency": "active: 10 µM"}
{"smiles": "CCOc1ccc2nc(N3CCCC(C(=O)NCCc4ccc(Cl)cc4)C3)sc2c1", "note": "(stereo unspecified)", "Potency": "inconclusive: 15.8 µM [inhibitor, partial curve]"}
{"smiles": "CCOC(=O)c1c(NC(=O)Cc2coc3ccc(CC)cc23)sc2c1CCC2", "Potency": "inconclusive: 3.55 µM [inhibitor, single point]"}
{"smiles": "COCCCNC(=S)N/N=C/c1ccc(OC)cc1", "Potency": "inconclusive: 12.6 µM [inhibitor, partial curve, poor fit]"}
{"smiles": "O=C(c1cccc(F)c1)N1CCN(Cc2ccco2)CC1", "activity, negative = inhibition": "inactive: -4.84%"}
{"smiles": "Cc1ccc(Cl)cc1NC1=C/C(=N\\S(=O)(=O)c2cccs2)c2ccccc2C1=O", "Potency": "active: 4.47 µM"}
{"smiles": "CNC(=S)N1CCN(c2ccc([N+](=O)[O-])cc2)CC1", "Potency": "active: 5.62 µM"}
{"smiles": "O=C(On1c(-c2ccccc2)nc2ccccc2c1=O)c1ccco1", "activity, negative = inhibition": "inactive: -2.54%"}
{"smiles": "CCOC(=O)N1CCc2c(sc3c2c(=O)n(-c2ccc(CC)cc2)c(=O)n3Cc2ccc(F)cc2Cl)C1", "activity, negative = inhibition": "inactive: -6.29%"}
{"smiles": "CCCCCCCc1ccc(-c2ccc(O)cc2)nc1", "Potency": "inconclusive: 17.8 µM [inhibitor, partial curve]"}
{"smiles": "CCN(c1ccccc1)S(=O)(=O)c1ccc(Cl)c(NC(=O)CSc2nncs2)c1", "activity, negative = inhibition": "inactive: -5.12%"}
{"smiles": "CC(=O)Nc1ccc(Nc2ccc3c4c(cc(=O)n3C)-c3ccccc3C(=O)c24)cc1", "Potency": "inconclusive: 5.01 µM [inhibitor, partial curve]"}
{"smiles": "COc1ccc(N2CCN(CCCNC(=O)c3c(C)nn(-c4ccc(F)cc4)c3-n3cccc3)CC2)cc1", "Potency": "inconclusive: 44.7 µM [inhibitor, single point]"}
{"smiles": "O=c1[nH]c2cc3c(cc2cc1C(c1nnnn1Cc1ccccc1)N1CCCc2ccccc21)OCO3", "note": "(stereo unspecified)", "activity, negative = inhibition": "inactive: -12%"}
{"smiles": "CC(=O)Nc1ccc(OCC(O)Cn2c3ccccc3c3ccccc32)c(C)c1", "note": "(stereo unspecified)", "Potency": "inconclusive: 10 µM [inhibitor, partial curve]"}
{"smiles": "Cn1c(=O)c2c(nc(SCC(=O)Nc3ccccc3F)n2Cc2ccccc2F)n(C)c1=O", "activity, negative = inhibition": "inactive: 6.16%"}
{"smiles": "O=C(CSc1nncs1)N1c2ccccc2Sc2ccccc21", "Potency": "inconclusive: 31.6 µM [inhibitor, single point]"}
{"smiles": "COc1ccc(CNC(=O)C(=O)NCC(c2ccco2)S(=O)(=O)c2ccc(Cl)cc2)cc1", "note": "(stereo unspecified)", "activity, negative = inhibition": "inactive: -1.51%"}
{"smiles": "Cc1nc(-c2ccc(Cl)cc2)sc1CCNC(=O)C(=O)Nc1ccc2c(c1)OCO2", "Potency": "inconclusive: 0.794 µM [inhibitor, full curve]"}
{"smiles": "COC(=O)c1ccc(CSc2ncnc3c2nnn3-c2ccc(F)cc2)o1", "Potency": "inconclusive: 7.08 µM [inhibitor, partial curve]"}
{"smiles": "CCN(CC)S(=O)(=O)c1ccc(S(=O)(=O)N(Cc2ccccn2)Cc2ccco2)cc1", "activity, negative = inhibition": "inactive: 0.776%"}
{"smiles": "Cc1ccccc1N1CCN(C2=NC(=O)/C(=C\\c3cccs3)S2)CC1", "Potency": "inconclusive: 5.62 µM [inhibitor, partial curve]"}
{"smiles": "C=CCn1c(SCc2cc([N+](=O)[O-])cc3c2OCOC3)nc2cc(C(=O)O)ccc2c1=O", "Potency": "inconclusive: 3.16 µM [inhibitor, partial curve, poor fit]"}
{"smiles": "O=C(CCSc1ccccc1)NCCSCc1ccccc1", "activity, negative = inhibition": "inactive: -2.5%"}
{"smiles": "Cc1ccc(OCC(=O)Nc2ccc(OCc3cc(=O)n4c(C)csc4n3)cc2)cc1C", "Potency": "inconclusive: 0.501 µM [inhibitor, full curve, poor fit]"}
